Among all 220,000 compounds or so, about 16,000 (7.3%) were called active. The inconclusive results got no clear call from the source; some entries with a clear call stand among them for comparison. Calls come from the whole dose curve; as a rule, active = well fitted inhibition curve with a large enough effect (not every such curve was filed as active); inconclusive = small, poorly fitted or top-dose-only effect, or another doubt; inactive = no such curve, though single readings can be large or run the other way. Potencies of inconclusive entries are left out as doubtful fits.
target: Aldehyde dehydrogenase 1A1 (Homo sapiens) (UniProt P00352); assay: qHTS Assay for Inhibitors of Aldehyde Dehydrogenase 1 (ALDH1A1); details: Purified ALDH1A1, NADH fluorescence, propionaldehyde substrate; series mostly up to 75.3 µM; activity, negative = inhibition: at the top concentration;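 for activity, negative = inhibition: plate controls were no enzyme wells and a reference inhibitor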
Sequence of UniProt P00352 (P00352 whole entry, looked up): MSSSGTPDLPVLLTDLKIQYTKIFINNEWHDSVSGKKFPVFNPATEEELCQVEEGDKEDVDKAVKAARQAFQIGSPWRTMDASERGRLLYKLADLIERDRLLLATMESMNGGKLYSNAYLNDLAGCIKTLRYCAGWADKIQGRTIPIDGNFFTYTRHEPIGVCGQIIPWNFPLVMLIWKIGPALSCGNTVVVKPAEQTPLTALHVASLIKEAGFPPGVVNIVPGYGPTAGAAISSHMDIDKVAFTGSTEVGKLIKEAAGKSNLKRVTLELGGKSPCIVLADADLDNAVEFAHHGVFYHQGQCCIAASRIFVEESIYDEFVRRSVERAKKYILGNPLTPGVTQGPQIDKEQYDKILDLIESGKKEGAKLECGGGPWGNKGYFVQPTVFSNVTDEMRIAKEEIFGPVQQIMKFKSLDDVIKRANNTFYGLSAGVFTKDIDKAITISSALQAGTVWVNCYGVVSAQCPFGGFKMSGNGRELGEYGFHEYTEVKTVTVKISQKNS
Potency is the fitted concentration of half-maximal effect; tags give direction and shape of the fitted curve.

Compound	Potency	activity, negative = inhibition
O=C(NC(NC(=S)Nc1ccc(Cl)c(Cl)c1)C(Cl)(Cl)Cl)c1ccco1 (centres undefined)	active: 7.08 µM	–
CCc1c(C)sc(NC(=O)c2cc(-c3cc(OC)ccc3OC)on2)c1C#N	inconclusive [inhibitor, partial curve]	–
Cc1ccc(NS(=O)(=O)c2ccc(C(=O)N3CCN(c4ncccn4)CC3)cc2)cc1	–	inactive: -10.5%
C=CC1=C(C)C2=Cc3c(C=C)c(C)c4[n]3[Sn+2][n]3c(c(C)c(CCC(=O)O)c3=CC3=NC(=C4)C(C)=C3CCC(=O)O)=CC1=N2	inconclusive [inhibitor, single point]	–
c1ccc(-n2nc3c(ccc4cnnc43)[nH]2)cc1	inconclusive [inhibitor, single point]	–
CC1=NN(C(=S)Nc2ccccc2)C(C)(C)C1	–	inactive: -5.84%
O=C(CSc1nc2ccccc2[nH]1)N/N=C/c1ccncc1	inconclusive [inhibitor, single point]	–
CNC(=O)c1sc(-c2cccnc2)nc1C	–	inactive: 4.9%
CN(C)S(=O)(=O)c1ccc(C(=O)NCC(=O)N/N=C/c2ccccc2Cl)cc1	–	inactive: -3.12%
CC(C)OCCCNC(=S)NNC(=O)C(c1ccccc1)c1ccccc1	–	inactive: -0.627%
CCOc1ccc(NC(=O)CN(C)c2nnnn2-c2ccccc2)cc1OCC	inconclusive [inhibitor, single point]	–
CC(C)(C)C(=O)NC1CCN(S(C)(=O)=O)CC1	–	inactive: 13.4%
C/C(=N\NC(=O)c1ccccc1O)c1c(O)cc(C)oc1=O	inconclusive [inhibitor, single point]	–
CCN1CCCC1CNC(=O)c1ccc(Cc2nc3ccccc3[nH]2)cc1 (centres undefined)	–	inactive: -0.0945%
Cc1cc(-c2cccs2)c2c(n1)sc1c(=O)[nH]c(=O)[nH]c12	inconclusive [inhibitor, single point]	–
COC(=O)c1cc(OC)c(OC)cc1NC(=O)Cn1nnc(-c2ccccc2Cl)n1	inconclusive [inhibitor, single point]	–
COc1ccc(-c2csc(NC(=O)C3COc4ccccc4O3)n2)cc1OC (centres undefined)	inconclusive [inhibitor, single point]	–
CCN(CC)c1ccc(NC(=O)CCCCCN2C(=O)c3ccccc3C2=O)cc1	inconclusive [inhibitor, single point]	–
COc1ccc(C(=O)Nc2cc(=O)[nH]c3ncnn23)cc1	inconclusive [inhibitor, single point]	–
Cc1ccc(C(=O)CNc2ccc(C)c(Cl)c2)cc1	active: 10 µM	–
Cc1cc(Cl)ccc1OCCCC(=O)NCc1ccccn1	–	inactive: 5.45%
O=C(Cn1c(=O)oc2cc(S(=O)(=O)N3CCCC3)ccc21)NCc1ccc(F)cc1	inconclusive [inhibitor, single point]	–
COC(=O)N/N=C/c1cn(CC(C)COc2ccccc2)c2ccccc12 (centres undefined)	inconclusive [inhibitor, single point]	–
O=C(c1ccco1)[C@@H]1[C@@H]2C(=O)N(c3ccc(F)cc3)C(=O)[C@@H]2C2c3ccccc3C=CN21 (some centres undefined)	active: 12.6 µM	–
O=C1CC(c2cccs2)CC(O)=C1C=NCCN1CCNCC1 (centres undefined)	inconclusive [inhibitor, single point]	–

Compound	Potency	activity, negative = inhibition
O=C(CN1CCOCC1)Nc1nc2ccc([N+](=O)[O-])cc2s1	inconclusive [inhibitor, single point]	–
CC(C)CCNC(=O)C(C)N(C(=O)c1snc(C(N)=O)c1N)c1cnc2ccccc2c1 (centres undefined)	inconclusive [inhibitor, partial curve]	–
CC1(C)CC2CC(C)(CN2C(=O)COC(=O)Cn2[nH]c(=O)c3ccccc3c2=O)C1 (centres undefined)	–	inactive: -0.775%
Cn1c(-c2cccc([N+](=O)[O-])c2)cnc1NCc1cccc([N+](=O)[O-])c1	active: 4.74 µM	–
CN(Cc1ccccc1)Cc1nc2c([nH]1)c(=O)n(C)c(=O)n2C	–	inactive: -1.18%
O=C(NCc1cccs1)C1CCN(c2nccs2)CC1	inconclusive [inhibitor, single point]	–
COC(=O)C(C(=O)OC)c1ccc(-n2cccc2)cc1	inconclusive [inhibitor, single point]	–
Cc1ccn(C(=O)c2ccc(NC(=O)CC(C)C)cc2)n1	–	inactive: 1.98%
COc1cccc(C(=O)CN2CCN(S(=O)(=O)c3cccc([N+](=O)[O-])c3)CC2)c1	active: 17.8 µM	–
Cc1cccc2cc(C#N)c(NCCNC(=O)NC3CCCCC3)nc12	–	inactive: 3.48%
CC(C)[C@H](NC(=O)c1cccc(S(=O)(=O)N2CCOCC2)c1)C(=O)Nc1nccs1	inconclusive [inhibitor, single point]	–
COc1ccc(C(=O)OC(C)C(=O)Nc2cc(C(F)(F)F)ccc2Cl)c(OC)c1OC (centres undefined)	–	inactive: 10%
C=CCN=C1SC(C)C(=O)N1S(=O)(=O)c1ccccc1 (centres undefined)	inconclusive [inhibitor, partial curve]	–
CCc1c(C)sc(NC(=O)c2cnn3cccnc23)c1C#N	inconclusive [inhibitor, partial curve, poor fit]	–
COc1ccc(C(=O)Nc2ccc3c(c2)Cc2ccccc2-3)cc1	inconclusive [inhibitor, single point]	–
O=C(CCc1nnc(CCC2CCCCC2)o1)NCCc1cccnc1	–	inactive: -12.8%
COc1ccccc1NC(=O)N1CCN(c2cccc(C(F)(F)F)c2)CC1	–	inactive: 1.29%
O=C(Nc1ccccc1N1CCOCC1)c1cccs1	–	inactive: -0.577%
CC(C(=O)NC(=O)NC1CCCCC1)N1CCN(C(c2ccccc2)c2ccccc2)CC1 (centres undefined)	–	inactive: 2.38%
O=C1c2cc(S(=O)(=O)NCCCO)ccc2-c2ccc(S(=O)(=O)NCCCO)cc21	–	inactive: 42.5%
CC(=O)NC(Cc1cccc(F)c1)C(=O)NC1CCN(c2nnnn2-c2ccccc2)CC1 (centres undefined)	active: 1.41 µM	–
COc1ccccc1N1CCN(C(=O)c2ccc3nc(-c4ccco4)c(-c4ccco4)nc3c2)CC1	active: 12.6 µM	–
Cc1nc(CS(=O)(=O)c2ccccc2)cc(N2CCOCC2)n1	–	inactive: 3.59%
COC(=O)CN(c1ccc(OC)cc1OC)S(=O)(=O)c1ccccc1[N+](=O)[O-]	active: 18.9 µM	–
O=C(Nc1cccc(C(=O)O)c1)/C(=C\c1ccc2c(c1)OCO2)NC(=O)c1ccc(Br)o1	–	inactive: -7.43%

Compound	Potency	activity, negative = inhibition
Cc1cc(NC(=O)CSc2nc(CC(C)(C)C)nc3c2c(=O)n(C)c(=O)n3C)no1	–	inactive: 10.5%
N#Cc1sc2nc(N3CCCCC3)c3c(c2c1N)CCCC3	inconclusive [inhibitor, single point]	–
CCOC(=O)c1ccc2c(c1)nc(SCC(=O)N1CCCCC1)n2CC	inconclusive [inhibitor, single point]	–
CCOC(=O)C1C(=O)N(C(=O)c2ccc(OC)cc2)CC1c1ccccc1 (centres undefined)	inconclusive [inhibitor, single point]	–
Cc1cccc(NC(=O)COC(=O)CCc2ccc(S(=O)(=O)N3CCOCC3)cc2)c1C	active: 3.55 µM	–
COc1ccc2c(-c3ccccc3)cc(SCC(=O)NC3CCS(=O)(=O)C3)nc2c1 (centres undefined)	inconclusive [inhibitor, single point]	–
CCOc1cc(C2Nc3ccccc3C(=O)N2c2ccccc2)ccc1O (centres undefined)	inconclusive [inhibitor, single point]	–
N#Cc1c(NC(=O)CCn2cnc3ccccc3c2=O)oc(-c2ccccc2)c1-c1ccccc1	inconclusive [inhibitor, single point]	–
COc1ccc(CNc2ccc(S(N)(=O)=O)cc2)c(OC)c1OC	–	inactive: 12.7%
NNC(=O)CSc1cccc2cccnc12	inconclusive [inhibitor, partial curve]	–
O=C(NN=C1CCCCCC1)c1cccnc1	inconclusive [inhibitor, single point]	–
CCN(CC)c1ccc(NC(=O)CN2CCN(S(=O)(=O)c3cc(Cl)ccc3OC)CC2)cc1	inconclusive [inhibitor, single point]	–
CC(=O)n1nc(-c2ccccc2)nc1NCc1cccs1	–	inactive: 9.56%
Nc1cc2c(cc1O)CCCC2	active: 2.24 µM	–
CC1=CN2C(=NC(=O)CC2(C)C(=O)N(CC(=O)NC2CCCC2)c2cc(C)cc(C)c2)C=C1 (centres undefined)	inconclusive [inhibitor, partial curve]	–
Cc1cc(C)nc(SCc2ccc(C(=O)N/N=C/c3ccccn3)cc2)n1	inconclusive [inhibitor, single point]	–
CCCCOC(=O)C(C)Oc1ccc(=O)n(-c2ccccc2)n1 (centres undefined)	inconclusive [inhibitor, partial curve]	–
Cn1c(-c2cccc([N+](=O)[O-])c2)cnc1NCc1ccc(C#N)cc1	inconclusive [inhibitor, single point]	–
COc1ccc(-n2cccc2/C=C/[N+](=O)[O-])cc1	inconclusive [inhibitor, partial curve]	–
Cc1cc2c(cc1Cl)C(c1ccccc1C)CC(=O)O2 (centres undefined)	inconclusive [inhibitor, partial curve, poor fit]	–
O=C(Nc1cccc(S(=O)(=O)N2CCCCC2)c1)c1ccccn1	inconclusive [inhibitor, single point]	–
CCOC(=O)c1ccc(NC2=CC(=O)C(=O)c3ccccc32)cc1	–	inactive: 5.53%
CSc1cc(-c2ccccc2)[nH]c(=O)c1C#N	inconclusive [inhibitor, single point]	–
Cc1oc(-c2ccc3c(c2)OCCO3)cc1C(=O)NC(CCC(=O)O)C(=O)O (centres undefined)	active: 7.94 µM	–

— PubChem BioAssay AID1030 (National Center for Advancing Translational Sciences (NCATS), 2008)
